In the supplement of paper PMC11417369:
The other results are listed elsewhere or left out.

Tested on: PfSIP2 AP2 domain 1 (GST-tagged)
Experiment: gcPBM binding intensity (ln(normalized median fluorescence intensity)); higher = stronger DNA binding
In short: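 The binding buffer was 1× PBS containing 1% milk, 0.2 mg/ml BSA, 0.5% salmon testes DNA and 0.03% Triton X-100. In it, GST-tagged P. falciparum DNA-binding domains expressed in E. coli were applied for 1 h to an Agilent 4 × 180k array of primer-extended double-stranded 36-bp intergenic genomic probes plus negative controls. Binding intensity, read with Alexa488 anti-GST antibody and a 488 nm scan, is the highest Masliner-normalised natural-log median intensity across replicate spots of either probe orientation.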

Point of comparison: “TGGAAAATTATTAACACACACATATAAATATATATA [CACACA_site46]”, “gcPBM binding intensity (ln)” value 7.23. Against it:
- TCTTTTTCATCTTTCAACAAAAAATAATATATGTGT [CACACA_negctrl_site866] — lower, 7.17
- TAAATTTGTGTTATTAAAAAAATGGTTTAAAAATGT [XGTACX_negctrl_site352] — lower, 7.21
- ATATATTTATATTGTACACACATTTATGCATATATA [CACACA_site7502] — lower, 7.2
- AAATATACAATATTCACACAAAAAAATACATTACAA [CACACA_site5004] — lower, 6.91
- TTTCTTACAAAAGCTAGAGTTTTTTTTTTTTTTTTT [XGTACX_negctrl_site341] — higher, 7.64
- TGTTTTTATAAAATAAATAAATATATATATATATAT [CACACA_negctrl_site502] — higher, 9.42
- AGAATAAATATGCACACATGCATATATTTTTACACT [TGCATGCA_site893] — higher, 9.22
- TTAGTCCATATTTTTGCACACCATTTTTTTTTTTTT [CACACA_site3927] — higher, 7.5
- ATCCTTAATATGAACACACAAATATATTGCACATAT [CACACA_site6230] — higher, 7.52
- GGTTAAAAAAAGCATACACACTATCCTCTTTGCTCT [CACACA_site7246] — lower, 7.04
- CTTTTTTATTTTTCAACACACATAATAAATTTCTAT [CACACA_site1037] — higher, 7.25
- GAACCTTTAAAATACACACCCAAATCCTTTGAAATA [CACACA_site3630] — lower, 7.01
- ATATTTTACAAATGCACACATAATTTTTTTTTTTTT [CACACA_site2763] — lower, 7.15
- TACATAAATACATACATACACACATATATATATATA [CACACA_site2105] — higher, 9.36
- TTTTTTTTTATATATACACACAATAAATAAATATAA [CACACA_site2954] — lower, 7.06
- AGCAGACACCAACACACACACATATATATATATATA [CACACA_site337] — higher, 9.47
- TATATATTAATCAAAGTGCAATAATAAAATAAAAGT [GTGCAC_site9490] — higher, 8.38
- TAACTTTATTTTCCTGTACACACATTTGACATATTA [CACACA_site9116] — lower, 7.22
- TCAAATTACGTAAGAACATGCGATATAAGAAATACG [TGCATGCA_site691] — lower, 7.15
- CTCTAATTAATATTTGTACACACATATTTAACCTAC [CACACA_site9043] — lower, 7.19
- TTTATACAAAAGAACAGTACAATAAAGGATTTATGA [XGTACX_site811] — lower, 6.7
- ATATAAAAAATATAAGGTACACATATATGTAGATAT [XGTACX_site6792] — higher, 7.28
- TAAATAAAATACAAATGTACATAAATAATAAATATA [XGTACX_site1813] — lower, 7.22
- CATATTCCCCCCCACACACACACACGCATACATACC [CACACA_site7148] — higher, 10.1
- AATTATTTTAAATATTGTACTATTACAGAATGGTGT [XGTACX_site5693] — higher, 7.51
- CTTGGGAAGTATTCAGTGCAAAATATAAGCAGGTCA [GTGCAC_site9758] — higher, 7.75
- TATATTATCAAAATGGTGCAATAATTTCTATATTAT [GTGCAC_site9772] — higher, 9.9
- AAAAGAAATAAGGATACACACTATTGATAAAAGTAG [CACACA_site4309] — lower, 7.15
- TCGTGGGAAAATATTACACACATTTACTATAGTATC [CACACA_site5836] — lower, 6.79
- TATTACAAATAATACCGTACACAAATGTTTTTTTAT [XGTACX_site7977] — lower, 6.85
- ATATATATATTGAAAAGTACATATATATATATATTA [XGTACX_site1560] — higher, 8.75
- TGGATAATCAAAAATTGTACAAGTGTTGTTATTGGT [XGTACX_site8010] — the same, 7.23
- ACCGGTGGAACGTTTTGTACATATATAATAATATAT [XGTACX_site2143] — lower, 7.04
- CTTTTATTGCTCTATATGCACACCTTAATTCTTCAT [CACACA_site2195] — higher, 7.86
- AATGGGTTAGCACATACACACCAATATATTATAGAT [CACACA_site7444] — lower, 6.85
- GCAAAATTTCCTAAGGTGCTTTTATTTTACACCGTT [GTGCAC_site9923] — higher, 7.8
- AAAACCTAAAAGTCTTAAATTTTAAATATACCTACA [GTGCAC_negctrl_site492] — lower, 6.6
- TTTATTACCATATTTTGTACACACATCTTTATCTCA [XGTACX_site6842] — lower, 7.16
- ACTCTATACATCTAATGTACATGGAAAAAAAAATTC [XGTACX_site733] — higher, 7.28
- ATTAAAATGGTATGTGCGCACATAATATATATATGT [GTGCAC_site9572] — higher, 7.78
- ATATAAATGATATGTACACACATTTATATTTATAAA [CACACA_site7600] — lower, 7.05
- ACATTGACATGTCGAAGTACTCAAGAAGCATACAAT [XGTACX_site3948] — lower, 6.97
- TTCTTACATAAAATATCACACACATAAAAAAACAAT [CACACA_site8576] — higher, 7.36
- GTAATAAGAATTATAGTGCAATGTAATACATTTATA — higher, 7.97
- TAATTTGAACGGTACAGTACTCTTTTTCTTTTTCAT [XGTACX_site5534] — lower, 6.66
- ATATATTTTTTCAATTGTACGTTTTAATAATATTTA [XGTACX_site2130] — lower, 7.17
- AATACAACATAATGAAGTACTGTATTTTATATTACT [XGTACX_site4885] — lower, 6.82
- ATGAAATCTTTAGAATATAGATGATGTTATTTAATT [XGTACX_negctrl_site511] — lower, 6.68
- TTTCTTTGAATAAATACACACGAGAAATGAAAGTAG [CACACA_site8490] — higher, 7.6
- TAAAGGAGCCTATGAACACACACATGTACTTATATT [CACACA_site9351] — lower, 6.85
- AATTGTTTGTTTGGGTGTACATGGTTCTATATAAAT [XGTACX_site7940] — higher, 7.32
- AATAAAATATAAACATTATATATATATATATATATA [GTGCAC_negctrl_site58] — higher, 9.92
- ATTTTTTCTTTTTTTTTTCCGTTTTTTTGGACATTT [CACACA_negctrl_site1174] — lower, 6.8
- ATAAAAAATAAATAAGGTACAGAACATTTATACATT [XGTACX_site1783] — lower, 6.84
- AAATTAAACAATAAATGTACATATATATTTGTATAT [XGTACX_site1092] — lower, 7.12
